In the supplement of paper PMC4604168 (melanoma cell lines):
Some of the results follow. Repeats are few or missing, and single values can be far off.

Key:
Test in all cases: cell count relative to DMSO control; melanoma cells; higher = more viable cells
Details in all cases: library dose: standard library concentration; 72 h
G361 = system: G361
IPC-298 = system: IPC-298
IST-MEL1 = system: IST-MEL1
LB2518-MEL = system: LB2518-MEL
LOXIMVI = system: LOXIMVI
MEL-HO = system: MEL-HO
MZ2-MEL = system: MZ2-MEL
MeWo = system: MeWo
RPMI7951 = system: RPMI7951
RVH-421 = system: RVH-421
SkMel28 = system: SkMel28
SkMel2 = system: SkMel2
SkMel30 = system: SkMel30
SkMel5 = system: SkMel5
UACC257 = system: UACC257
UACC62 = system: UACC62
WM115 = system: WM115
WM1716 = system: WM1716
WM1745 = system: WM1745
WM3526 = system: WM3526
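Also: cells treated in 1,536-well plates, then fixed and DAPI-stained, with nuclei counted from automated high-throughput microscope images.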

Structure (SMILES)	cell count (G361) [%]	cell count (IPC-298) [%]	cell count (IST-MEL1) [%]	cell count (LB2518-MEL) [%]	cell count (LOXIMVI) [%]	cell count (MEL-HO) [%]	cell count (MZ2-MEL) [%]	cell count (MeWo) [%]	cell count (RPMI7951) [%]	cell count (RVH-421) [%]	cell count (SkMel28) [%]	cell count (SkMel2) [%]	cell count (SkMel30) [%]	cell count (SkMel5) [%]	cell count (UACC257) [%]	cell count (UACC62) [%]	cell count (WM115) [%]	cell count (WM1716) [%]	cell count (WM1745) [%]	cell count (WM3526) [%]
N#CC[C@H](C1CCCC1)n1cc(-c2ncnc3[nH]ccc23)cn1 [ruxolitinib] + CCCCCCCCCCCCCCCCCCOP(=O)([O-])OC1CC[N+](C)(C)CC1 [Perifosine] (first compound 5 µM, partner dose 2 µM)	82.5	95.3	100	135	70.4	78.4	90.3	86.8	24.8	69.1	48.1	83.8	70.6	85.5	71.5	138	80.9	67.9	82.6	82.8
N#CC[C@H](C1CCCC1)n1cc(-c2ncnc3[nH]ccc23)cn1 [ruxolitinib] + Cn1cnc2c(F)c(Nc3ccc(Br)cc3Cl)c(C(=O)NOCCO)cc21 [selumetinib] (first compound 5 µM, partner dose 0.075 µM)	80	49.8	86.1	55.5	191	71.2	49.1	64.5	116	85.2	88.6	62.9	74	85.4	123	114	84.7	95.7	81.8	71
CC[C@]1(O)C[C@H]2CN(CCc3c([nH]c4ccccc34)[C@@](C(=O)OC)(c3cc4c(cc3OC)N(C=O)[C@H]3[C@@](O)(C(=O)OC)[C@H](OC(C)=O)[C@]5(CC)C=CCN6CC[C@]43[C@@H]65)C2)C1 [vincristine] + C#Cc1cccc(Nc2ncnc3cc(OCCOC)c(OCCOC)cc23)c1 [erlotinib] (first compound 0.0005 µM, partner dose 4 µM)	16.3	35.1	36.8	25.3	59.8	27.8	35.5	23.5	22.5	31.8	14.5	10	37.6	41.9	62.7	25.8	47.1	39.3	31.9	34.2
Cc1cc(Nc2cc(N3CCN(C)CC3)nc(Sc3ccc(NC(=O)C4CC4)cc3)n2)n[nH]1 [Tozasertib] + CC1(C)CCC(c2ccc(Cl)cc2)=C(CN2CCN(c3ccc(C(=O)NS(=O)(=O)c4ccc(N[C@H](CCN5CCOCC5)CSc5ccccc5)c(S(=O)(=O)C(F)(F)F)c4)cc3)CC2)C1 [ABT263] (first compound 0.03 µM, partner dose 2 µM)	72.8	88.2	69.5	61	30.5	49	48.7	54.9	15.2	46.7	54.8	78.1	54.8	41.7	32.1	56.4	41.2	50.3	2.4	74.8
Cc1cc(Nc2cc(N3CCN(C)CC3)nc(Sc3ccc(NC(=O)C4CC4)cc3)n2)n[nH]1 [Tozasertib] + OCc1c[nH]c2ccccc12 [Indole-3-carbinol] (first compound 0.03 µM, partner dose 4 µM)	89.5	92.5	105	69.4	79.5	87.3	54.8	73.3	84	86.1	67.7	94	90.2	75.3	90.6	82.2	63.9	71.4	70.7	81.2
N#CC[C@H](C1CCCC1)n1cc(-c2ncnc3[nH]ccc23)cn1 [ruxolitinib] + CCCCCCCCc1ccc(CCC(N)(CO)CO)cc1 [fingolimod] (first compound 5 µM, partner dose 10 µM)	0.296	37.7	5.26	0.195	9.75	1.78	0.556	38.7	3.76	54.6	0.575	0.48	15.3	30.2	73.3	13.4	5.1	43.2	3.14	17.2
N#CC[C@H](C1CCCC1)n1cc(-c2ncnc3[nH]ccc23)cn1 [ruxolitinib] + CNC(=O)c1cc(Oc2ccc(NC(=O)Nc3ccc(Cl)c(C(F)(F)F)c3)cc2)ccn1 [sorafenib] (first compound 5 µM, partner dose 2 µM)	77.3	98.6	106	117	118	96	154	89.5	133	119	103	106	128	96.6	85.9	139	122	103	108	109
CC[C@]1(O)C[C@H]2CN(CCc3c([nH]c4ccccc34)[C@@](C(=O)OC)(c3cc4c(cc3OC)N(C=O)[C@H]3[C@@](O)(C(=O)OC)[C@H](OC(C)=O)[C@]5(CC)C=CCN6CC[C@]43[C@@H]65)C2)C1 [vincristine] + Cn1nnc2c(C(N)=O)ncn2c1=O [temozolomide] (first compound 0.0005 µM, partner dose 10 µM)	124	108	96.4	108	90.9	120	101	106	75.4	80.7	42.1	104	54	82.5	98.7	59.5	61.3	50.3	93.3	65.7
CC[C@]1(O)C[C@H]2CN(CCc3c([nH]c4ccccc34)[C@@](C(=O)OC)(c3cc4c(cc3OC)N(C=O)[C@H]3[C@@](O)(C(=O)OC)[C@H](OC(C)=O)[C@]5(CC)C=CCN6CC[C@]43[C@@H]65)C2)C1 [vincristine] + Cc1cc(N2CCOCC2)cc2[nH]c(-c3c(NC[C@@H](O)c4cccc(Cl)c4)cc[nH]c3=O)nc12 [BMS536924] (first compound 0.0005 µM, partner dose 1 µM)	57.6	91.7	60.6	62.9	55	73.8	50.1	29.9	27.8	52.3	28.4	20.3	47.7	38.7	64.1	53.7	26.2	48.5	34.5	47.3
Cc1cc(Nc2cc(N3CCN(C)CC3)nc(Sc3ccc(NC(=O)C4CC4)cc3)n2)n[nH]1 [Tozasertib] + CC(C)(C)c1cnc(CSc2cnc(NC(=O)C3CCNCC3)s2)o1 [SNS-032] (first compound 0.03 µM, partner dose 0.05 µM)	94.5	106	87.2	77.4	76	103	76.5	70.5	69.5	99.2	52.3	68.6	97	64.5	92	77.8	50.6	74.2	58.1	97.5
Cc1cc(Nc2cc(N3CCN(C)CC3)nc(Sc3ccc(NC(=O)C4CC4)cc3)n2)n[nH]1 [Tozasertib] + CS(=O)(=O)c1ccc(C(=O)Nc2ccc(Cl)c(-c3ccccn3)c2)c(Cl)c1 [vismodegib] (first compound 0.03 µM, partner dose 5 µM)	80.6	77.2	101	78.2	68.3	90.6	66.8	90.5	93.5	118	73.1	87.8	93.6	93	102	61	46.7	80.8	53.7	102
Cc1cc(Nc2cc(N3CCN(C)CC3)nc(Sc3ccc(NC(=O)C4CC4)cc3)n2)n[nH]1 [Tozasertib] + C[C@]1(O)C[C@@H](c2nc(-c3ccc4ccc(-c5ccccc5)nc4c3)c3c(N)nccn32)C1 [OSI906] (first compound 0.03 µM, partner dose 2 µM)	76.3	88.2	104	74.9	92.2	95.3	68.1	71.6	96.6	125	46.9	80.9	73.6	68.6	100	75.8	72.4	77.1	65.9	79.9
CC[C@]1(O)C[C@H]2CN(CCc3c([nH]c4ccccc34)[C@@](C(=O)OC)(c3cc4c(cc3OC)N(C=O)[C@H]3[C@@](O)(C(=O)OC)[C@H](OC(C)=O)[C@]5(CC)C=CCN6CC[C@]43[C@@H]65)C2)C1 [vincristine] + NCC(=O)Nc1ccc(-n2nc(C(F)(F)F)cc2-c2ccc3c(ccc4ccccc43)c2)cc1 [OSU03012] (first compound 0.0005 µM, partner dose 5 µM)	62.9	63.8	76.7	91.6	73.1	76.2	90	105	119	80.8	23.1	48	29.7	48.1	69.6	68	99.4	62.4	99.9	48.3
CC[C@]1(O)C[C@H]2CN(CCc3c([nH]c4ccccc34)[C@@](C(=O)OC)(c3cc4c(cc3OC)N(C=O)[C@H]3[C@@](O)(C(=O)OC)[C@H](OC(C)=O)[C@]5(CC)C=CCN6CC[C@]43[C@@H]65)C2)C1 [vincristine] + CCCCCCCCCCCCCCCCCCOP(=O)([O-])OC1CC[N+](C)(C)CC1 [Perifosine] (first compound 0.0005 µM, partner dose 2 µM)	89.3	102	91.6	93.5	64	99.8	102	108	21.8	129	70	102	77.9	67.4	95.2	59.1	71.3	67.4	82.6	73.7
